Measurements taken from patent US10517292B2 (priority 2015, dated 2019).

Conditions: absorbed on shell pieces, under air in the light; appearance of hexadecenoic acid by oxidation; FIG. 2
Experimental: A paintball projectile shell consisting of an oxo-biodegradable polyolefin is cut into small pieces of the order of 2 to 5 mm^2. The pieces thus obtained are placed in a reactor containing a magnetic stirrer. The reactor is placed under nitrogen.
100 mg of the hexadecenal mixture described above is added to the pieces and stirring is maintained until the liquid has been completely absorbed by the pieces.
The pieces are then separated in two portions:
The first half is stored in an aluminum foil pouch, under nitrogen (control). The second half is placed in a closed transparent cup under air in the light. Pieces are regularly analyzed by gas chromatography. Changes in the pheromonal mixture are reported in the following graph (FIG. 2): […]

Substance: Z and E-11 hexadecenal [pheromone mixture]
- Stability of the pheromone mixture in direct contact with oxo-biodegradable polyolefin: decomposes
